# According to PMC12820563:
# The list shows a part of the results. The list includes weakly bound sequences.
# Molecular target: T1, MBP-FoxP3dN (UniProt Q99JB6)
# T1 sequence: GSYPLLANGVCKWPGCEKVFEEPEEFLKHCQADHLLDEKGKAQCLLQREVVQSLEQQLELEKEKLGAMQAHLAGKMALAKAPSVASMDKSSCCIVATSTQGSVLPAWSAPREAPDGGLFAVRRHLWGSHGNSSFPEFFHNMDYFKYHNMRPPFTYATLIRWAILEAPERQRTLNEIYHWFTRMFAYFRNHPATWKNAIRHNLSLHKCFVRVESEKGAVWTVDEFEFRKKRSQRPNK
# Experiment: PD-seq (MBP pull-down with sequencing)
# Details: 20 mM Tris-HCl pH 7.5, 100 mM NaCl, 1.5 mM MgCl2, 0.4 uM protein, 0.1 uM dsDNA library, 30 min, room temperature, amylose pull-down; high values mean tight binding; double strand, one strand shown
row,Sequence,binding signal (RPM ratio (pull-down/input))
1,GATGATTGTTCTCCCAGCTGATGAATTGTGGCAGTCGAGTAAACAAATTTTCCTAATCTTTCTGTTCAAGCGCCATCTAC,1.21
2,GATGATTGTTCTCCCAGCTGATGAATTAAGCAGTTCGAGTAAACAAATTTTCCTAATCTTTCTGTTCAAGCGCCATCTAC,1.05
3,GATGATTGTTCTCCCAGCTGATGAATTACCTTGCTCGAGTAAACAAATTTTCCTAATCTTTCTGTTCAAGCGCCATCTAC,0.354
4,GATGATTGTTCTCCCAGCTGATGAATTTTGTAGTTCGAGTAAACAAATTTTCCTAATCTTTCTGTTCAAGCGCCATCTAC,4.32
5,GATGATTGTTCTCCCAGCTGATGAATTTTTGCCTTCGAGTAAACAAATTTTCCTAATCTTTCTGTTCAAGCGCCATCTAC,2.86
6,GATGATTGTTCTCCCAGCTGATGAATTGAGCCTCTCGAGTAAACAAATTTTCCTAATCTTTCTGTTCAAGCGCCATCTAC,5.15
7,GATGATTGTTCTCCCAGCTGATGAATTGTCTGAGTCGAGTAAACAAATTTTCCTAATCTTTCTGTTCAAGCGCCATCTAC,0.254
8,GATGATTGTTCTCCCAGCTGATGAATTTATGGATTCGAGTAAACAAATTTTCCTAATCTTTCTGTTCAAGCGCCATCTAC,0.902
9,GATGATTGTTCTCCCAGCTGATGAATTGTTCTTCTCGAGTAAACAAATTTTCCTAATCTTTCTGTTCAAGCGCCATCTAC,0.401
10,GATGATTGTTCTCCCAGCTGATGAATTTCAAAAATCGAGTAAACAAATTTTCCTAATCTTTCTGTTCAAGCGCCATCTAC,0.161
11,GATGATTGTTCTCCCAGCTGATGAATTACAAGCGTCGAGTAAACAAATTTTCCTAATCTTTCTGTTCAAGCGCCATCTAC,0.713
12,GATGATTGTTCTCCCAGCTGATGAATTGATACCGTCGAGTAAACAAATTTTCCTAATCTTTCTGTTCAAGCGCCATCTAC,0.617
13,GATGATTGTTCTCCCAGCTGATGAATTTTGTCGCTCGAGTAAACAAATTTTCCTAATCTTTCTGTTCAAGCGCCATCTAC,1.79
14,GATGATTGTTCTCCCAGCTGATGAATTAAGGATCTCGAGTAAACAAATTTTCCTAATCTTTCTGTTCAAGCGCCATCTAC,0.284
15,GATGATTGTTCTCCCAGCTGATGAATTAGTCAGCTCGAGTAAACAAATTTTCCTAATCTTTCTGTTCAAGCGCCATCTAC,0.563
16,GATGATTGTTCTCCCAGCTGATGAATTCATCTTCTCGAGTAAACAAATTTTCCTAATCTTTCTGTTCAAGCGCCATCTAC,0.431
17,GATGATTGTTCTCCCAGCTGATGAATTGTCCTGATCGAGTAAACAAATTTTCCTAATCTTTCTGTTCAAGCGCCATCTAC,0.262
18,GATGATTGTTCTCCCAGCTGATGAATTGCATTGTTCGAGTAAACAAATTTTCCTAATCTTTCTGTTCAAGCGCCATCTAC,4.05
19,GATGATTGTTCTCCCAGCTGATGAATTCCACAACTCGAGTAAACAAATTTTCCTAATCTTTCTGTTCAAGCGCCATCTAC,0.4
20,GATGATTGTTCTCCCAGCTGATGAATTCCGGGCCTCGAGTAAACAAATTTTCCTAATCTTTCTGTTCAAGCGCCATCTAC,0.367
21,GATGATTGTTCTCCCAGCTGATGAATTAATAGTGTCGAGTAAACAAATTTTCCTAATCTTTCTGTTCAAGCGCCATCTAC,0.89

row,Sequence,binding signal (RPM ratio (pull-down/input))
1,GATGATTGTTCTCCCAGCTGATGAATTATCGTACTCGAGTAAACAAATTTTCCTAATCTTTCTGTTCAAGCGCCATCTAC,0.505
2,GATGATTGTTCTCCCAGCTGATGAATTTCCGCGGTCGAGTAAACAAATTTTCCTAATCTTTCTGTTCAAGCGCCATCTAC,0.24
3,GATGATTGTTCTCCCAGCTGATGAATTCCTTCGCTCGAGTAAACAAATTTTCCTAATCTTTCTGTTCAAGCGCCATCTAC,0.236
4,GATGATTGTTCTCCCAGCTGATGAATTCACGTAGTCGAGTAAACAAATTTTCCTAATCTTTCTGTTCAAGCGCCATCTAC,0.315
5,GATGATTGTTCTCCCAGCTGATGAATTCTACTCGTCGAGTAAACAAATTTTCCTAATCTTTCTGTTCAAGCGCCATCTAC,0.353
6,GATGATTGTTCTCCCAGCTGATGAATTAACTTTCTCGAGTAAACAAATTTTCCTAATCTTTCTGTTCAAGCGCCATCTAC,0.428
7,GATGATTGTTCTCCCAGCTGATGAATTAACTGTTTCGAGTAAACAAATTTTCCTAATCTTTCTGTTCAAGCGCCATCTAC,0.641
8,GATGATTGTTCTCCCAGCTGATGAATTTCGGCACTCGAGTAAACAAATTTTCCTAATCTTTCTGTTCAAGCGCCATCTAC,0.458
9,GATGATTGTTCTCCCAGCTGATGAATTCAAAAAATCGAGTAAACAAATTTTCCTAATCTTTCTGTTCAAGCGCCATCTAC,0.155
10,GATGATTGTTCTCCCAGCTGATGAATTTCTCGTCTCGAGTAAACAAATTTTCCTAATCTTTCTGTTCAAGCGCCATCTAC,0.277
11,GATGATTGTTCTCCCAGCTGATGAATTACGCGAGTCGAGTAAACAAATTTTCCTAATCTTTCTGTTCAAGCGCCATCTAC,0.787
12,GATGATTGTTCTCCCAGCTGATGAATTCACGCTTTCGAGTAAACAAATTTTCCTAATCTTTCTGTTCAAGCGCCATCTAC,1.11
13,GATGATTGTTCTCCCAGCTGATGAATTCCTGGCCTCGAGTAAACAAATTTTCCTAATCTTTCTGTTCAAGCGCCATCTAC,0.303
14,GATGATTGTTCTCCCAGCTGATGAATTGTTATGGTCGAGTAAACAAATTTTCCTAATCTTTCTGTTCAAGCGCCATCTAC,3.05
15,GATGATTGTTCTCCCAGCTGATGAATTCGCTCGCTCGAGTAAACAAATTTTCCTAATCTTTCTGTTCAAGCGCCATCTAC,0.27
16,GATGATTGTTCTCCCAGCTGATGAATTCGCTGAATCGAGTAAACAAATTTTCCTAATCTTTCTGTTCAAGCGCCATCTAC,0.249
17,GATGATTGTTCTCCCAGCTGATGAATTGTAAACCTCGAGTAAACAAATTTTCCTAATCTTTCTGTTCAAGCGCCATCTAC,0.86
18,GATGATTGTTCTCCCAGCTGATGAATTTACACGGTCGAGTAAACAAATTTTCCTAATCTTTCTGTTCAAGCGCCATCTAC,0.384
19,GATGATTGTTCTCCCAGCTGATGAATTAGTAGGATCGAGTAAACAAATTTTCCTAATCTTTCTGTTCAAGCGCCATCTAC,0.437
20,GATGATTGTTCTCCCAGCTGATGAATTGTGGTGATCGAGTAAACAAATTTTCCTAATCTTTCTGTTCAAGCGCCATCTAC,1.16
